Screen size: about 150,000 compounds; about 540 (0.36%) showed an effect of 50% or more. The list shows a part of the results.
Test system: Plasmodium falciparum
Experiment: Primary screen in NF54 nanoGlo assay, in single point, at 2uM, 72h; a lower Z score goes with more inhibition
Format: functional, Erythrocyte
Details: timepoint 72 hour

SMILES | % Inhibition [%] | Z score
Cc1ccc(C(=O)N2CCCO[C@@H](CN3CCCCC3)C2)cc1O | 6 | -0.81
COc1ccc(CN(C(=O)c2ccc(OC(C)C)cc2)[C@H]2CCS(=O)(=O)C2)cc1 | -17 | 1.54
O=C(Nc1ccc(F)c(Cl)c1)[C@H](Cc1ccccc1)n1cnnn1 | 17 | -2.1
O=C(CN1CN(c2cccc(F)c2)c2ncccc2S1(=O)=O)NC1CCCCC1 | -18 | 1.95
CCc1[nH]c2ccc(CNC(=O)CN3CC[C@H](N(C)C)C3)cc2c1C | -3 | 0.47
COc1ccccc1[C@H](C)NC(=O)N1CCN(c2nccs2)CC1 | 3 | -0.58
C=CC[C@@H]1Cc2c(N)cccc2[C@@H](CC=C)N1 | -7 | 1.07
Cc1n[nH]cc1Nc1ncnc2c(C)cccc12 | -8 | 0.76
O=C(NCCN1CCNC1=O)c1cccc(-c2cc(C(F)(F)F)n[nH]2)c1 | -3 | 0.42
O=S(=O)(C1CC1)N1CCCN(Cc2ccc(-c3ccccc3)o2)CC1 | -14 | 2.56
Cc1cc(C)n(-c2ccc(N3CCC(N4CC(N5CCOCC5)C4)CC3)cc2)n1 | -13 | 1.85
Cc1cc(Cl)ccc1NC(=O)CN1CCCNC(=O)[C@@H]1C | -6 | 0.94
COCC1(C2CCC2)CN(C(=O)NCc2cnc(C)o2)C1 | 12 | -1.74
Cc1ccc(F)cc1-n1c(C2CC2)n[nH]c1=O | -14 | 1.73
Cc1cccnc1C(F)(F)C(=O)Nc1cccc2c1OCC[C@@H]2O | -11 | 2.09
Cc1c(Cl)cccc1NC(=O)Cn1cnc2c(C(N)=O)nsc2c1=O | -8 | 1.02
O=C(NCCC(=O)N1CCCCCC1)N[C@H]1CC12CCCCC2 | -7 | 1.21
O=C([C@@H]1COc2ccccc2C1)N1CCN(S(=O)(=O)c2cccc(F)c2)CC1 | -13 | 2.41
CCOc1ccc(-c2nnc(S)o2)cc1 | -2 | 0.31
CC(C)Oc1ccc(C(=O)Nc2cnc3ccnn3c2)cc1 | -6 | 1.2
CCc1noc(C)c1CN1C(=O)N[C@@](C)(c2cnn(C)c2)C1=O | -2 | 0.26

SMILES | % Inhibition [%] | Z score
O=C(c1ccc(Br)o1)N1CCc2ncncc2C1 | -14 | 2.71
CCC(=O)c1ccc(NC(=O)N[C@H]2CCCCN(Cc3nc(C)no3)C2=O)cc1 | -7 | 0.65
O=c1cccc(-c2nc(C3CCOCC3)nn2-c2nc3ccccc3[nH]2)[nH]1 | -21 | 2.3
Cc1cc(C(=O)N(c2ccccn2)C2CCCC2)nc(-c2ccc(Cl)cc2)n1 | -12 | 1.58
CCNC(=O)N1CCN(c2ccc(-c3noc(C4CCCC4)n3)cc2)CC1 | -5 | 0.89
CCc1nsc(N2CCN[C@H](c3cn[nH]c3)C2)n1 | -12 | 1.43
COc1ccccc1CNC(=O)c1ccc(Cn2c(=O)c3ccccc3n(Cc3ccc(C)cc3)c2=O)cc1 | -3 | 0.3
O=C(Nc1nc(CC(=O)N2CCCCC2)cs1)NC1CCCC1 | -6 | 1.16
CN(CCCS(C)(=O)=O)C(=O)c1ccc(F)c(Cl)c1F | -5 | 0.88
C[C@H]1Cc2ccccc2N1C(=O)CN1CCS(=O)(=O)C(C)(C)C1 | 1 | -0.15
Cc1[nH]c(C)c(S(=O)(=O)N2CCC(C(=O)Nc3ccc4c(c3)OCCO4)CC2)c1C(=O)N1CCCC1 | -13 | 1.29
CCn1cc(C(=O)NC[C@H]2COC3(CCC(C)CC3)O2)cn1 (stereo partly specified) | -8 | 0.75
CCn1nc(C)c(CN/C(=N\c2ccc3c(c2)OCCO3)NC(=O)c2ccc(C)c(F)c2)c1C | 3 | -0.43
COc1ccc(OC)c(-c2c([C@@H]3c4ccccc4C(=O)N3Cc3ccc(F)cc3)c3ccccc3n2C)c1 | 11 | -1.31
CC(C)[C@H]1C(=O)NCCN1S(=O)(=O)c1ccc(Cl)s1 | -19 | 2.56
c1cncc(CN2CCN(C3CCCCCC3)CC2)c1 | 30 | -4.41
Cc1cc(CN2CCCCC2)cc(C)c1Oc1cncc(C(=O)N(C)C)n1 | -5 | 0.74
Cc1ccc2[nH]c3c(=O)n(CC(=O)NC4CCCCC4)ncc3c2c1 | -1 | 0.16
Cc1cc(NC(=O)CCc2ccco2)n(-c2cc(C(F)(F)F)ccc2Cl)n1 | -9 | 0.95
CC[C@H](C)NC(=O)NCc1nnc(C(=O)Nc2ccc3c(c2)OCO3)s1 | 15 | -1.71
CN(C(=O)c1cccc(-c2n[nH]c(C3CCCCC3)n2)c1)[C@H]1COC[C@@H]1O | -9 | 1.47

SMILES | % Inhibition [%] | Z score
Cc1ccc(NC(=O)NCCS(=O)(=O)N(C)C)c(C)n1 | -8 | 0.9
CC(C)C[C@H](NC(=O)c1cc(=O)[nH]c(=O)[nH]1)c1ncnn1C | -4 | 0.59
COCCNC(=O)CCN(CCOC)C(=O)c1cc(-c2c(C)cc(C)cc2C)on1 | -12 | 2.09
CC(=O)c1cccc(S(=O)(=O)N2CCN(CCn3nc(C)cc3C)CC2)c1 | -6 | 1.04
CS(=O)(=O)[C@H]1CCCN(C(=O)NCCOC2CCCCCC2)CC1 | -5 | 0.69
CCN1CC[C@H](CNc2ccc3cccc(Cl)c3n2)C1 | 1 | -0.1
CC(C)CN1C[C@H](OCc2cccnc2)CN(C(=O)CCc2cccs2)CC1=O | 10 | -1.35
CCCN(CCC1=CCCCC1)C(=O)c1cc(C(F)F)n[nH]1 | -16 | 2.65
FC(F)(F)c1cc([C@H]2CCCN(CCOCC3CC3)C2)n[nH]1 | -3 | 0.52
Cn1ccc(C(=O)Nc2cc3c(cc2Br)CCC3)cc1=O | -11 | 1.39
O=C(c1cccc(CN2CCC(Cc3ccccc3)CC2)c1)N1CCCC1 | -9 | 1.16
O=C(c1nnn(-c2ccccc2Cl)c1-c1cccnc1)N1CCC(Cc2ccccc2)CC1 | 40 | -5.19
Cc1nnc(NC(=O)NCCC(=O)NC2CCCC2)s1 | 5 | -0.64
CCN(CC)CC(=O)NCc1cc2c(nc1OC)CN(C1CCCC1)C2=O | 8 | -0.85
O=C(NCc1cccnc1)C1CCCC1 | 4 | -0.57
CCc1nnc(CNC(=O)[C@H]2C[C@@H](c3ccccc3)N3CCC[C@H]23)o1 | -15 | 2.29
CC(=O)Nc1ccncc1NC(=O)[C@@H]1CCO[C@H]1C1CC1 | -12 | 2.27
CN(CC1=CCCOC1)c1ncc(C#N)cc1Cl | -9 | 1.08
NC[C@@H](CO)Cc1ccccc1C(F)(F)F | -10 | 1.33
Cc1cc(C(=O)N2CC(c3ccccc3)C3CCCC32)no1 (stereo unspecified) | -11 | 1.64
O=C(Cn1c(=O)c2sccc2n(CC(=O)Nc2ccc3c(c2)OCO3)c1=O)Nc1ccc(F)cc1 | -4 | 0.6

SMILES | % Inhibition [%] | Z score
CCn1c(C)nnc1CS(=O)(=O)Cc1cccc2ccccc12 | -9 | 1.15
CCCc1nnc(C(=O)N2C[C@H](OC(C)C)[C@@H](O)C2)o1 | -3 | 0.36
CCn1c(=O)c2ccn(CC(=O)Nc3cc(OC)c(OC)c(OC)c3)c2n(CC)c1=O | -20 | 2.04
Cc1ccc(-c2noc([C@H]3CCc4cncn4C3)n2)cc1 | 6 | -1.25
C/C=C/Cc1nnc(C(=O)N(C)C[C@H]2CCCN2C)o1 | -4 | 0.54
COC(=O)c1ccc(N[C@@H](C)c2ccc(F)cc2)nn1 | 1 | -0.09
O=C1COc2ccc(S(=O)(=O)N3CCC[C@H](C(=O)N4CCCCCC4)C3)cc2N1 | -2 | 0.26
CCN(CC)C(=O)Cn1c(=O)ncc2cc(S(=O)(=O)N3CCCC[C@@H]3C)ccc21 | 0 | -0.06
Cc1cccc(CCC(=O)NS(=O)(=O)N(C)c2ccccc2)c1 | -13 | 1.36
CCc1nc(-c2cc3ccccc3nc2N2CCN(c3ccc(OC)cc3)CC2)no1 | -11 | 2.05
Cc1nc(NC(=O)C2=NN(c3ccccc3)[C@H](C(N)=O)C2)sc1C | -5 | 0.76
CCCc1[nH]nc(-c2ccc3c(c2)OCO3)c1NC(=O)c1ccc(Cl)cc1 | -2 | 0.19
O=C(Cn1cc2c(n1)CCCCCC2)NCCc1ccc(Cl)cc1 | 6 | -0.96
Cc1cc(Cl)ccc1NC(=O)c1sc2ncnc(N3CCCC3)c2c1C | -11 | 1.04
Cc1ccc(Cl)cc1N1CCN(C(=O)C2CCN(c3ccc(-c4cccs4)nn3)CC2)CC1 | 0 | 0.04
O=C(N1CCCc2ccccc21)C(O)(c1ccccc1)c1ccccc1 | 8 | -1.47
CCc1ccc(-c2c[nH]c(NC(=O)[C@@H]3COCCO3)n2)cc1 | -4 | 0.63
CCC(C)Oc1cccc(NC(=O)N2CC3C4CCC(O4)C3C2)c1 (stereo unspecified) | -13 | 1.41
CCC(CC)C1CC(NS(=O)(=O)c2cnc3onc(C)c3c2)CCO1 (stereo unspecified) | 7 | -1.4
CC(C)n1cc(C(=O)Nc2ccncc2)cn1 | -7 | 1.38

— ChEMBL document CHEMBL4888484, “Replenishing the malaria drug discovery pipeline: Screening and hit evaluation of the MMV Hit Generation Library 1 (HGL1) against asexual blood stage Plasmodium falciparum ,using a nano luciferase reporter read-out” (2022)
